Results from the supplement of paper PMC8728848.
This is one part of the list.

Assays:
Assay in all cases: glycan array binding signal (z-score within array); higher = stronger binding
Details in all cases: glycan notation: IUPAC condensed, linker removed
[1] = target: Fuc(a1-2)[Gal(a1-3)]Gal(b1-3)GlcNAc
Procedure, shortened: (§1)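 The binding signal is a Z-score computed within each array. Data were drawn from 3228 arrays in the Consortium for Functional Glycomics database, restricted to those with a known protein sequence. Scores were averaged over arrays of the same protein sequence at different concentrations or buffers, and over linkers, and negative values can be taken as non-binding.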

[2] = target: Fuc(a1-2)[Gal(a1-3)]Gal(b1-3)GlcNAc(b1-2)Man(a1-3)[Fuc(a1-2)[Gal(a1-3)]Gal(b1-3)GlcNAc(b1-2)Man(a1-6)]Man(b1-4)GlcNAc(b1-4)GlcNAc
Procedure, shortened: as §1

[3] = target: Fuc(a1-2)[Gal(a1-3)]Gal(b1-3)GlcNAc(b1-2)Man(a1-3)[Fuc(a1-2)[Gal(a1-3)]Gal(b1-3)GlcNAc(b1-2)Man(a1-6)]Man(b1-4)GlcNAc(b1-4)[Fuc(a1-6)]GlcNAc
Procedure, shortened: as §1

[4] = target: Fuc(a1-2)[Gal(a1-3)]Gal(b1-3)GlcNAc(b1-3)GalNAc
Procedure, shortened: as §1

[5] = target: Fuc(a1-2)[Gal(a1-3)]Gal(b1-3)GlcNAc(b1-6)GalNAc
Procedure, shortened: as §1

[6] = target: Fuc(a1-2)[Gal(a1-3)]Gal(b1-4)Glc
Procedure, shortened: as §1

[7] = target: Fuc(a1-2)[Gal(a1-3)]Gal(b1-4)GlcNAc
Procedure, shortened: as §1

[8] = target: Fuc(a1-2)[Gal(a1-3)]Gal(b1-4)GlcNAc(b1-2)Man
Procedure, shortened: as §1

[9] = target: Fuc(a1-2)[Gal(a1-3)]Gal(b1-4)GlcNAc(b1-2)Man(a1-3)[Fuc(a1-2)[Gal(a1-3)]Gal(b1-4)GlcNAc(b1-2)Man(a1-6)]Man(b1-4)GlcNAc(b1-4)GlcNAc
Procedure, shortened: as §1

[10] = target: Fuc(a1-2)[Gal(a1-3)]Gal(b1-4)GlcNAc(b1-2)Man(a1-3)[Fuc(a1-2)[Gal(a1-3)]Gal(b1-4)GlcNAc(b1-2)Man(a1-6)]Man(b1-4)GlcNAc(b1-4)[Fuc(a1-6)]GlcNAc
Procedure, shortened: as §1

[11] = target: Fuc(a1-2)[Gal(a1-3)]Gal(b1-4)GlcNAc(b1-3)GalNAc
Procedure, shortened: as §1

[12] = target: Fuc(a1-2)[Gal(a1-3)]Gal(b1-4)GlcNAc(b1-3)[Fuc(a1-2)[Gal(a1-3)]Gal(b1-4)GlcNAc(b1-6)]GalNAc
Procedure, shortened: as §1

[13] = target: Fuc(a1-2)[Gal(a1-3)]Gal(b1-4)GlcNAc(b1-6)GalNAc
Procedure, shortened: as §1

[14] = target: Fuc(a1-2)[Gal(a1-3)]Gal(b1-4)[Fuc(a1-3)]Glc
Procedure, shortened: as §1

[15] = target: Fuc(a1-2)[Gal(a1-3)]Gal(b1-4)[Fuc(a1-3)]GlcNAc
Procedure, shortened: as §1

[16] = target: Fuc(a1-2)[Gal(a1-3)]Gal(b1-4)[Fuc(a1-3)]GlcNAc(b1-3)GalNAc
Procedure, shortened: as §1

[17] = target: Fuc(a1-2)[Gal(a1-4)]Gal(b1-4)GlcNAc
Procedure, shortened: as §1

[18] = target: Fuc(a1-2)[GalNAc(a1-3)]Gal
Procedure, shortened: as §1

[19] = target: Fuc(a1-2)[GalNAc(a1-3)]Gal(b1-3)GalNAc(a1-3)[Fuc(a1-2)]Gal(b1-4)GlcNAc
Procedure, shortened: as §1

[20] = target: Fuc(a1-2)[GalNAc(a1-3)]Gal(b1-3)GalNAc(b1-3)Gal(a1-4)Gal(b1-4)Glc
Procedure, shortened: as §1

[21] = target: Fuc(a1-2)[GalNAc(a1-3)]Gal(b1-3)GlcNAc
Procedure, shortened: as §1

[22] = target: Fuc(a1-2)[GalNAc(a1-3)]Gal(b1-3)GlcNAc(b1-2)Man(a1-3)[Fuc(a1-2)[GalNAc(a1-3)]Gal(b1-3)GlcNAc(b1-2)Man(a1-6)]Man(b1-4)GlcNAc(b1-4)GlcNAc
Procedure, shortened: as §1

[23] = target: Fuc(a1-2)[GalNAc(a1-3)]Gal(b1-3)GlcNAc(b1-2)Man(a1-3)[Fuc(a1-2)[GalNAc(a1-3)]Gal(b1-3)GlcNAc(b1-2)Man(a1-6)]Man(b1-4)GlcNAc(b1-4)[Fuc(a1-6)]GlcNAc
Procedure, shortened: as §1

B1: SSR1 (Sclerotium rolfsii), A0A0M3KL30 (protein)
chain: TYKITVRVYQTNPDAFFHPVEKTVWKYANGGTWTITDDQHVLTMGGSGTSGTLRFHADNGESFTATFGVHNYKRWCDIVTNLAADETGMVINQQYYSQKNREEARERQLSNYQVKNAKGRNFQIVYTEAEGNDLHANLIIG
- glycan array binding signal (z-score) [1]: -0.313
- glycan array binding signal (z-score) [2]: -0.345
- glycan array binding signal (z-score) [3]: -0.311
- glycan array binding signal (z-score) [4]: -0.334
- glycan array binding signal (z-score) [5]: -0.347
- glycan array binding signal (z-score) [6]: -0.336
- glycan array binding signal (z-score) [7]: -0.332
- glycan array binding signal (z-score) [8]: -0.295
- glycan array binding signal (z-score) [9]: -0.333
- glycan array binding signal (z-score) [10]: -0.34
- glycan array binding signal (z-score) [11]: 0.325
- glycan array binding signal (z-score) [12]: -0.325
- glycan array binding signal (z-score) [13]: -0.34
- glycan array binding signal (z-score) [14]: -0.342
- glycan array binding signal (z-score) [15]: -0.326
- glycan array binding signal (z-score) [16]: -0.308
- glycan array binding signal (z-score) [17]: -0.328
- glycan array binding signal (z-score) [18]: 0.705
- glycan array binding signal (z-score) [19]: 0.844
- glycan array binding signal (z-score) [20]: 0.204
- glycan array binding signal (z-score) [21]: 0.355
- glycan array binding signal (z-score) [22]: 0.338
- glycan array binding signal (z-score) [23]: -0.312
